Measurements reported in PubChem BioAssay AID504333 (National Center for Advancing Translational Sciences (NCATS), 2011).
Screen size: about 360,000 compounds; about 16,000 (4.4%) were called active. The shares of active, inactive and inconclusive entries below differ from those in the screen. Calls come from the whole dose curve; as a rule, active = well fitted inhibition curve with a large enough effect; inconclusive = small, poorly fitted or top-dose-only effect; inactive = no such curve, though single readings can be large or run the other way. Where the call is inconclusive, the potency comes from a doubtful curve fit.

biological target: Bromodomain adjacent to zinc finger domain protein 2B (Homo sapiens) (UniProt Q9UIF8); assay: qHTS Assay for Inhibitors of BAZ2B; details: AlphaScreen BAZ2B-H3K14Ac peptide displacement; activity change, negative = inhibition: at 114 µM (top of the series); note: nearly all actives have a fitted effect of over 60% in size
Chain of UniProt Q9UIF8 (Q9UIF8 whole entry, looked up, the tested form may be a part): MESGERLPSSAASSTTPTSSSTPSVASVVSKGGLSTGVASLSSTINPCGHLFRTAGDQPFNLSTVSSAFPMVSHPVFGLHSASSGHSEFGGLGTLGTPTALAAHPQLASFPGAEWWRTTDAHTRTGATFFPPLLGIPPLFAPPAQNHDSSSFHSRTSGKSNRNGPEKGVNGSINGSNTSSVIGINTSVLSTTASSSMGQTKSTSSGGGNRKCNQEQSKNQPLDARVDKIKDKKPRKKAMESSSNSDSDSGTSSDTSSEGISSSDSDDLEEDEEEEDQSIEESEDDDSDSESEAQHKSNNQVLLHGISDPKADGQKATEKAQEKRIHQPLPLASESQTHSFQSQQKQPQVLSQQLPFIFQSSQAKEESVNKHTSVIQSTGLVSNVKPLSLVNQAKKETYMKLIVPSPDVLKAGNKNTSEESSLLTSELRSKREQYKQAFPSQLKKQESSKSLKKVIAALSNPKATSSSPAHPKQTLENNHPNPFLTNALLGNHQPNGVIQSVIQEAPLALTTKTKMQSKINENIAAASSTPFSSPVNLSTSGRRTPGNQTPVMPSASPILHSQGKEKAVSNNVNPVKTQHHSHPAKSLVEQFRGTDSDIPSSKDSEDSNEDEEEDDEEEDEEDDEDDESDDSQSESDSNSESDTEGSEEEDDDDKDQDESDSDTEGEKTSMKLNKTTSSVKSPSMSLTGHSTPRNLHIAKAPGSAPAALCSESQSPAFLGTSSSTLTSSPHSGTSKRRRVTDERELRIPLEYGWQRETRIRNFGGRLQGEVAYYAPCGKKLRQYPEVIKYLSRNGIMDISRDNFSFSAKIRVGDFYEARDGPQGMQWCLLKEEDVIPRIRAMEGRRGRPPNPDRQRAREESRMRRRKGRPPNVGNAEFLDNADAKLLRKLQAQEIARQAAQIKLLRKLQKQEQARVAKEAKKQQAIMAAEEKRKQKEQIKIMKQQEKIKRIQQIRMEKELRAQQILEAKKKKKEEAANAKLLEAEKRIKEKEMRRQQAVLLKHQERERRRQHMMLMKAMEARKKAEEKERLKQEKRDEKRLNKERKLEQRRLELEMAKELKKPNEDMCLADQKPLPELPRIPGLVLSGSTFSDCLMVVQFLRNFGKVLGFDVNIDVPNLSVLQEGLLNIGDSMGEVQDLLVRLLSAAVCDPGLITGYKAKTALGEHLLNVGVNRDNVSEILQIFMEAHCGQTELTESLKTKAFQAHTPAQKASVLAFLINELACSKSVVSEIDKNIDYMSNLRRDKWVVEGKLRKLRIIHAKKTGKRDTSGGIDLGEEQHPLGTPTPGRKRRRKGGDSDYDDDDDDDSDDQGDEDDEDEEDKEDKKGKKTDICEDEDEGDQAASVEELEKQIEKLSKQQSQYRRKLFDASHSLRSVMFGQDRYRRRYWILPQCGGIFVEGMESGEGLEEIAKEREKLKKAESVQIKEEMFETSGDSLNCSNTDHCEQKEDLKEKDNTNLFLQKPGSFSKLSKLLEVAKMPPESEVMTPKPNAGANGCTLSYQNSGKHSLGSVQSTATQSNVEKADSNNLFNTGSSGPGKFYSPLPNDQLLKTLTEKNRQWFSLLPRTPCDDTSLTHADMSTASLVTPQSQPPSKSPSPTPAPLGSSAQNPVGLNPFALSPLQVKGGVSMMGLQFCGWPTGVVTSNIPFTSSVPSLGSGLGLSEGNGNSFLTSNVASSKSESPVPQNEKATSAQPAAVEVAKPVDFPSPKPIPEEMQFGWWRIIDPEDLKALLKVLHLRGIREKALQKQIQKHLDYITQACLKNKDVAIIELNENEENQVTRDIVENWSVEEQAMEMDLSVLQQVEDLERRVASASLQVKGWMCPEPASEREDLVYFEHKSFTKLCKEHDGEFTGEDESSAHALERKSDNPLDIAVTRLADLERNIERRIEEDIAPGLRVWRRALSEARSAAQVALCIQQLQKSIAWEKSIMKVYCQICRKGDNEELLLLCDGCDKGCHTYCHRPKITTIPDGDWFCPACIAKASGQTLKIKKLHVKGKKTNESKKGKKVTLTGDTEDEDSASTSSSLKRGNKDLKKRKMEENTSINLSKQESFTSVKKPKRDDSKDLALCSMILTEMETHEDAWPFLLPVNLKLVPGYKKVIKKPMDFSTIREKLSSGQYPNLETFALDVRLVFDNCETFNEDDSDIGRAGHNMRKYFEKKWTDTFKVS
Summary of the method: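 BAZ2B (50 nM) with biotin-H3(5-23)K14Ac peptide (50 nM) in PBS pH 7.4, 0.01% Tween-20, preformed 30 min, then compound 30 min at room temperature; top concentration 110uM. AlphaScreen streptavidin donor/nickel chelate acceptor beads (10 ug/mL final), 20 min dark, signal read.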
% is set by controls: 0 for no effect and ±100 for the full control effect; potency is the fitted concentration of half-maximal effect; tags give direction and shape of the fitted curve.

| Compound | activity change, negative = inhibition | Potency |
| --- | --- | --- |
| Cc1ccc(CN2CN(S(=O)(=O)c3cccs3)c3nc4ccccc4nc32)cc1 | inactive: 1.08% | – |
| CCN1CCN(CC(=O)Nc2c(OC)cccc2OC)CC1 | – | active: 17.8 µM |
| CC(C)OC(=O)c1c(NC(=O)c2cccc(C(F)(F)F)c2)sc2c1CCCC2 | inactive: 7.62% | – |
| O=S(=O)(c1ccc(S(=O)(=O)N2CCC(O)CC2)cc1)N1CCCC1 | inactive: -3.1% | – |
| CC1=NNC(=O)/C1=C\c1cn(-c2ccccc2)nc1-c1ccc(Cl)cc1 | – | inconclusive: 89.1 µM [inhibitor, single point] |
| COC(=O)c1sc2nc(-c3ccccc3)nc(N3CCN(C)CC3)c2c1C | – | inconclusive: 50.1 µM [inhibitor, partial curve] |
| COc1nc(/C=C/N(C)C)c([N+](=O)[O-])c(OC)n1 | – | inconclusive: 79.4 µM [inhibitor, single point] |
| CC(C)n1c(SC2C(=O)CC(C)(C)CC2=O)nc2c1c(=O)n(C)c(=O)n2C | – | inconclusive: 89.1 µM [inhibitor, single point] |
| O=C(/C=C/c1ccc2c(c1)OCO2)Nc1nc(-c2ccc(F)cc2F)cs1 | – | inconclusive: 89.1 µM [inhibitor, single point] |
| COc1cccc(C(=O)Nc2cc3c(cc2N2CCOCC2)n(C)c(=O)n3C)c1 | – | inconclusive: 89.1 µM [inhibitor, single point] |
| Nc1ccc(N=Nc2ccccc2Cl)c(N)n1 | – | active: 25.1 µM |
| CCOC(=O)CCCNC(=O)c1cncc(O)c1 | – | inconclusive: 89.1 µM [inhibitor, single point] |
| CCN(CC)c1ccc(NC(=O)COCc2cc(-c3ccc4c(c3)OCO4)on2)c(C)c1 | – | active: 22.4 µM |
| COc1ccc(C2C(C(=O)c3sc(C)nc3C)=C(O)C(=O)N2CCCn2ccnc2)cc1OC (configuration not stated) | – | inconclusive: 89.1 µM [inhibitor, single point] |
| Cc1ccc2c(CN3C(=O)NC4(CCCCC4)C3=O)cc(=O)oc2c1C | inactive: -2.76% | – |
| O=C1CCNc2cc3ccccc3cc21 | – | inconclusive: 89.1 µM [inhibitor, single point] |
| Cc1nc(-c2ccc(S(=O)(=O)Oc3ccccc3Cl)s2)cs1 | inactive: 24.4% | – |
| COc1ccc(NC(=O)Oc2ccccc2)cc1Cl | – | inconclusive: 89.1 µM [inhibitor, single point] |
| CCOC(=O)Cc1[nH]nc2c1C(c1cc(OC)ccc1OC)C(C#N)=C(N)O2 (configuration not stated) | – | inconclusive: 89.1 µM [inhibitor, single point] |
| O=C(c1ccccc1Cl)n1nc(-c2ccco2)nc1NCc1cccs1 | inactive: -3.82% | – |
| CCN(CC(=O)Nc1cccc(OC)c1)CC(=O)Nc1ccc(C)cc1Cl | – | active: 31.6 µM |
| COc1ccc(/C=N/Nc2ccc(C(=O)O)cc2)cc1Br | – | inconclusive: 50.1 µM [inhibitor, partial curve] |
| CN(C)c1ccc(C(C(=O)NCc2ccccc2)N(Cc2cccnc2)C(=O)c2snc(C(N)=O)c2N)cc1 (configuration not stated) | – | inconclusive: 50.1 µM [inhibitor, partial curve] |
| Cc1ccc(NC(=O)CN(C)CC(=O)Nc2ccc(N3CCOCC3)cc2)cc1F | – | active: 17.8 µM |

| Compound | activity change, negative = inhibition | Potency |
| --- | --- | --- |
| COc1ccc(C(=O)/C=C(\C)Nc2ccc(NC(C)=O)cc2)cc1 | – | active: 79.4 µM |
| CCOc1cc(S(=O)(=O)NCc2ccccn2)c(C)cc1C | – | inconclusive: 89.1 µM [inhibitor, single point] |
| CCCCn1c(=O)[nH]c(=O)c2c1nc(-c1cc(Br)ccc1OC)n2C | inactive: -1% | – |
| Cn1c(=O)c2cc(S(=O)(=O)NC(Cc3ccccc3)C(=O)Nc3ccc(F)cc3)ccc2n(C)c1=O (configuration not stated) | – | inconclusive: 100 µM [inhibitor, partial curve] |
| COc1ccccc1NC(=O)C(=O)NNS(=O)(=O)c1ccc2ccccc2c1 | – | inconclusive: 56.2 µM [inhibitor, partial curve] |
| COc1cc(/C=C2/C(=O)NN(c3cccc(Cl)c3)C2=O)cc(OC)c1O | – | active: 28.2 µM |
| Cc1nn(-c2ccccn2)c2c1C(c1c(F)cccc1Cl)C1=C(N2)c2ccccc2C1=O (configuration not stated) | – | active: 8.91 µM |
| COc1ccc(NC(=O)c2cc([N+](=O)[O-])ccc2NC(=O)CNCc2ccccn2)c(OC)c1 | – | inconclusive: 63.1 µM [inhibitor, partial curve, poor fit] |
| COc1ccc(C(=O)C2CCCN(Cc3cccn3-c3nccs3)C2)cc1F (configuration not stated) | – | inconclusive: 89.1 µM [inhibitor, single point] |
| O=C(O)COc1ccccc1/C=N/NC(=O)CSc1nc2ccccc2n1Cc1ccccc1 | – | inconclusive: 79.4 µM [inhibitor, single point] |
| COc1cc(CN2CCCCCC2)cc(OC)c1OC | – | inconclusive: 89.1 µM [inhibitor, single point] |
| COc1ccc2cc(-c3cccnc3)ncc2c1 | inactive: -37.6% | – |
| COC(=O)C1C/C(=N\NS(=O)(=O)c2ccc(C)cc2)c2ccccc2C1 (configuration not stated) | – | inconclusive: 79.4 µM [inhibitor, single point] |
| COc1ccccc1NS(=O)(=O)c1cc(NC(=O)CCC2CCCC2)ccc1N1CCOCC1 | – | inconclusive: 89.1 µM [inhibitor, partial curve, poor fit] |
| CCN(CC)CCCNC(=O)c1csc(Nc2cccc3ccccc23)n1 | – | inconclusive: 79.4 µM [inhibitor, single point] |
| COc1cccc(-c2nc(Cn3c(=O)cc(C)c4c(C)nn(-c5ccccc5)c43)c(C)o2)c1OC | inactive: -13% | – |
| Cc1c(Cl)ccc2sc(N3CCN(C(=O)CCS(=O)(=O)c4ccc(F)cc4)CC3)nc12 | inactive: -6.9% | – |
| CCC1=NN(C(=O)c2ccc(C)cc2)C(O)(c2ccc(Br)cc2)C1 (configuration not stated) | – | inconclusive: 50.1 µM [inhibitor, partial curve] |
| Cc1cc(NCc2ccncc2)ccc1Br | – | active: 50.1 µM |
| COc1ccc(NC(=O)NNC(=O)CCc2ccc(O)c(O)c2)cc1OC | inactive: -16.9% | – |
| Cc1ccccc1NS(=O)(=O)c1ccc(C)c(C(N)=O)c1 | inactive: -2.43% | – |
| CNC(=O)c1ccc(-n2cccn2)nc1 | – | inconclusive: 79.4 µM [inhibitor, single point] |
| CCc1nc(SCC(=O)N2CC(=O)Nc3ccccc32)c2c(C)c(C)sc2n1 | inactive: -4.56% | – |
| O=C(O)c1ccc(/C=C2\SC(=S)N(Nc3ccccc3)C2=O)cc1 | – | inconclusive: 44.7 µM [inhibitor, partial curve] |

| Compound | activity change, negative = inhibition | Potency |
| --- | --- | --- |
| O=C(Cc1cccs1)Nc1nnc(Cc2ccccc2)s1 | – | active: 50.1 µM |
| CC[C@@](C)(NS(=O)(=O)OCC(Cl)(Cl)Cl)c1ccccc1 | inactive: -3.49% | – |
| COc1cc(OC)cc(C(=O)NCCNc2nc3cc(C)cc(C)c3cc2C#N)c1 | inactive: 4.08% | – |
| S=C(NCCCN1CCOCC1)N1CCN(c2nc(-c3ccc(Cl)cc3)cs2)CC1 | inactive: -13% | – |
| Clc1ccccc1C1=CC(c2ccco2)n2nnnc2N1 (configuration not stated) | – | inconclusive: 89.1 µM [inhibitor, single point] |
| COc1cccc(N2CCN(C(=O)c3cnc4c(-c5ccc(F)cc5)c(C)nn4c3C)CC2)c1 | – | inconclusive: 70.8 µM [inhibitor, partial curve] |
| COc1ccc(CNCCc2ccc([N+](=O)[O-])cc2)c(OC)c1OC | – | active: 50.1 µM |
| O=C(Nc1nnc(C2=COCCO2)o1)c1ccc(Cl)cc1 | – | active: 56.2 µM |
| COc1ccc(NC(=O)CCc2c(C)nn(-c3ccc(N4CCCC4)nn3)c2C)cc1Cl | inactive: -29.7% | – |
| CCOC(=O)c1c(-c2ccc(C)cc2)csc1NC(=O)/C(C#N)=C/c1ccc(O)c(OC)c1 | – | inconclusive: 35.5 µM [inhibitor, partial curve] |
| CC(=O)/C(=N/Nc1ccc([N+](=O)[O-])cc1)N1CCCc2ccccc21 | – | inconclusive: 15.8 µM [inhibitor, partial curve] |
| COc1cccc(NC(=O)CN(C)C(=O)CCCc2c[nH]c3ccccc23)c1 | – | inconclusive: 89.1 µM [inhibitor, single point] |
| CCOC(=O)c1cc2sc(C)cc2n1CC(=O)NCCc1ccccc1 | – | inconclusive: 39.8 µM [inhibitor, single point] |
| COCCNC(=S)N/N=C(\C)c1cccc(OC)c1 | – | inconclusive: 70.8 µM [inhibitor, single point] |
| Cc1ccc(CN(C)C(=O)c2ccccc2Sc2ccccc2C#N)cc1 | – | inconclusive: 5.62 µM [inhibitor, full curve, poor fit] |
| Cn1nc(C(=O)NCc2ccccn2)c2ccccc2c1=O | – | inconclusive: 89.1 µM [inhibitor, single point] |
| O=C(/C=C/c1ccco1)Nc1ccc(-c2nc3ccccc3[nH]2)cc1 | – | inconclusive: 79.4 µM [inhibitor, single point] |
| CCOC(=O)N1CCc2c(sc(NCc3cc(OC)ccc3OC)c2C(=O)Nc2cc(OC)ccc2OC)C1 | – | active: 31.6 µM |
| COc1cccc2cc3c(=O)n(-c4ccccc4)nc-3oc12 | – | inconclusive: 89.1 µM [inhibitor, single point] |
| COc1ccccc1N1CCN(C(=O)C(C)CS(=O)(=O)c2ccc3c(c2)NC(=O)CS3)CC1 (configuration not stated) | – | active: 56.2 µM |
| Cc1nc(C)c(C(=O)Nc2nc3c(C)cccc3s2)o1 | – | active: 35.5 µM |
| CC(=O)c1ccc(-c2ccc(/C=C(/Sc3n[nH]c(C)n3)C(=O)O)o2)cc1 | – | inconclusive: 39.8 µM [inhibitor, partial curve, poor fit] |
| Nc1ccc(O)c2c1C(=O)c1ccccc1C2=O | – | active: 3.98 µM |
| CCc1ccc(CNC(=O)c2ccc3c(c2)c(C)c(C)n3Cc2ccccc2)cc1 | – | inconclusive: 28.2 µM [inhibitor, full curve] |
